# Results from US20240076343A1 (CEPHALON, published 2024).
# T1: high-affinity hIL-2 receptor (IL-2Rαβγ) on NK-92 cells (human, UniProt P01589 22-272; P14784 27-551; P31785 23-369)
# T1 sequence 1: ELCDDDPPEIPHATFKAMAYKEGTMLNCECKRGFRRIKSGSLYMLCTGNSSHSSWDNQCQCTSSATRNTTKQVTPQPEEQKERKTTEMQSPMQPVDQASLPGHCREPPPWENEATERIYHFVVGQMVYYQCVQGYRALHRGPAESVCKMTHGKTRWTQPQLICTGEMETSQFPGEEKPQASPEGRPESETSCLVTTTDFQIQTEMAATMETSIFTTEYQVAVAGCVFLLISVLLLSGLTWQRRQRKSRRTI
# T1 sequence 2: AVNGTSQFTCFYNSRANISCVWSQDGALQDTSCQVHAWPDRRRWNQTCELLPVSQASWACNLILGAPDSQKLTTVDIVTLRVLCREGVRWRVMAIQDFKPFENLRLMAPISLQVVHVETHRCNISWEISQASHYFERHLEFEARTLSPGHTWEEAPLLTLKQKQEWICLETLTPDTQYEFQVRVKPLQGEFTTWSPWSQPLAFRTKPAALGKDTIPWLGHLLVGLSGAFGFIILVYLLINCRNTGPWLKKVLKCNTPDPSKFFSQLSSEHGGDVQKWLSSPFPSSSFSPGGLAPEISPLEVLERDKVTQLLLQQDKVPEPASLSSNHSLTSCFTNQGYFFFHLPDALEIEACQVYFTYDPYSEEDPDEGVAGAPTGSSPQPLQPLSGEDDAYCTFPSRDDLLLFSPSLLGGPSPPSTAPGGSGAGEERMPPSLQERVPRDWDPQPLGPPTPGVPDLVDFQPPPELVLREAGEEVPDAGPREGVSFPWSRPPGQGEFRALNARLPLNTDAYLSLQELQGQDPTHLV
# T1 sequence 3: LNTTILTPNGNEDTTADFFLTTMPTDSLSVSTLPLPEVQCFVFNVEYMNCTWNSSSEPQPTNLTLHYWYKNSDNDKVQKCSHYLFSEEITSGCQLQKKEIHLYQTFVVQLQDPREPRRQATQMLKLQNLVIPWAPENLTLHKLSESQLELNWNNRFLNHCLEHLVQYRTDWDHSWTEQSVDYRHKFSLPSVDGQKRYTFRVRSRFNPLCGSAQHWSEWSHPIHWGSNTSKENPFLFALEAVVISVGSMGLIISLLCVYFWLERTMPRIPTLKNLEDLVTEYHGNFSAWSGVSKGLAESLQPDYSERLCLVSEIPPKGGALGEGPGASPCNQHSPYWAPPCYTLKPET
# T2: intermediate affinity hIL-2 receptor complex (IL-2Rβγ) on TF1+IL-2Rβ cells (human, UniProt P14784 27-551; P31785 23-369)
# T2 sequence 1: T1 sequence 2
# T2 sequence 2: T1 sequence 3
# B1: 1H3-hIgG1-L6-hCD25(1-164)-L20-hIL-2 (E15A) (other)
# heavy: EVQLVESGGGLVQPGRSLKLSCAVSGFTFSDYAMAWVRQAPKKGLEWVATISYDGSRTYYRDSVKGRFTISRDNAKITLYLQMDSLRSEDTATYYCARHGSGYFDYWGQGVMVTVSS[not shown - human IgG1 constant region]SGGGGSELCDDDPPEIPHATFKAMAYKEGTMLNCECKRGFRRIKSGSLYMLCTGNSSHSSWDNQCQCTSSATRNTTKQVTPQPEEQKERKTTEMQSPMQPVDQASLPGHCREPPPWENEATERIYHFVVGQMVYYQCVQGYRALHRGPAESVCKMTHGKTRWTQPQLICTSGGGGSGGGGSGGGGSGGGS[not shown - about 150 residues]
# light: DTVLTQSPALAVSPGERVTISCRASESVRTGVHWYQQKPGQQPKLLIYGASNLESGVPARFSGSGSGTDFTLTIDPVEADDTATYFCQQSWNDPFTFGSGTKLEIKRTVAAPSVFIFPPSDEQLKSGTASVVCLLNNFYPREAKVQWKVDNALQSGNSQESVTEQDSKDSTYSLSSTLTLSKADYEKHKVYACEVTHQGLSSPVTKSFNRGEC
# B2: 1H3-hIgG1-L6-hCD25(1-164)-L20-hIL-2 (D20W) (other)
# heavy: EVQLVESGGGLVQPGRSLKLSCAVSGFTFSDYAMAWVRQAPKKGLEWVATISYDGSRTYYRDSVKGRFTISRDNAKITLYLQMDSLRSEDTATYYCARHGSGYFDYWGQGVMVTVSS[not shown - human IgG1 constant region]SGGGGSELCDDDPPEIPHATFKAMAYKEGTMLNCECKRGFRRIKSGSLYMLCTGNSSHSSWDNQCQCTSSATRNTTKQVTPQPEEQKERKTTEMQSPMQPVDQASLPGHCREPPPWENEATERIYHFVVGQMVYYQCVQGYRALHRGPAESVCKMTHGKTRWTQPQLICTSGGGGSGGGGSGGGGSGGGS[not shown - about 150 residues]
# light: B1 light
# B3: 1H3-hIgG1-L6-hCD25(1-164)-L20-hIL-2 (N88E) (other)
# heavy: EVQLVESGGGLVQPGRSLKLSCAVSGFTFSDYAMAWVRQAPKKGLEWVATISYDGSRTYYRDSVKGRFTISRDNAKITLYLQMDSLRSEDTATYYCARHGSGYFDYWGQGVMVTVSS[not shown - human IgG1 constant region]SGGGGSELCDDDPPEIPHATFKAMAYKEGTMLNCECKRGFRRIKSGSLYMLCTGNSSHSSWDNQCQCTSSATRNTTKQVTPQPEEQKERKTTEMQSPMQPVDQASLPGHCREPPPWENEATERIYHFVVGQMVYYQCVQGYRALHRGPAESVCKMTHGKTRWTQPQLICTSGGGGSGGGGSGGGGSGGGS[not shown - about 150 residues]
# light: B1 light
# B4: 1H3-hIgG1-L6-hCD25(1-164)-L20-hIL-2 (N88D) (other)
# heavy: EVQLVESGGGLVQPGRSLKLSCAVSGFTFSDYAMAWVRQAPKKGLEWVATISYDGSRTYYRDSVKGRFTISRDNAKITLYLQMDSLRSEDTATYYCARHGSGYFDYWGQGVMVTVSS[not shown - human IgG1 constant region]SGGGGSELCDDDPPEIPHATFKAMAYKEGTMLNCECKRGFRRIKSGSLYMLCTGNSSHSSWDNQCQCTSSATRNTTKQVTPQPEEQKERKTTEMQSPMQPVDQASLPGHCREPPPWENEATERIYHFVVGQMVYYQCVQGYRALHRGPAESVCKMTHGKTRWTQPQLICTSGGGGSGGGGSGGGGSGGGS[not shown - about 150 residues]
# light: B1 light
# B5: 1H3-hIgG1-L6-hCD25(1-164)-L20-hIL-2 (D20H) (other)
# heavy: EVQLVESGGGLVQPGRSLKLSCAVSGFTFSDYAMAWVRQAPKKGLEWVATISYDGSRTYYRDSVKGRFTISRDNAKITLYLQMDSLRSEDTATYYCARHGSGYFDYWGQGVMVTVSS[not shown - human IgG1 constant region]SGGGGSELCDDDPPEIPHATFKAMAYKEGTMLNCECKRGFRRIKSGSLYMLCTGNSSHSSWDNQCQCTSSATRNTTKQVTPQPEEQKERKTTEMQSPMQPVDQASLPGHCREPPPWENEATERIYHFVVGQMVYYQCVQGYRALHRGPAESVCKMTHGKTRWTQPQLICTSGGGGSGGGGSGGGGSGGGS[not shown - about 150 residues]
# light: B1 light
# B6: 1H3-hIgG1-L6-hCD25(1-164)-L20-hIL-2 (N88Y) (other)
# heavy: EVQLVESGGGLVQPGRSLKLSCAVSGFTFSDYAMAWVRQAPKKGLEWVATISYDGSRTYYRDSVKGRFTISRDNAKITLYLQMDSLRSEDTATYYCARHGSGYFDYWGQGVMVTVSS[not shown - human IgG1 constant region]SGGGGSELCDDDPPEIPHATFKAMAYKEGTMLNCECKRGFRRIKSGSLYMLCTGNSSHSSWDNQCQCTSSATRNTTKQVTPQPEEQKERKTTEMQSPMQPVDQASLPGHCREPPPWENEATERIYHFVVGQMVYYQCVQGYRALHRGPAESVCKMTHGKTRWTQPQLICTSGGGGSGGGGSGGGGSGGGS[not shown - about 150 residues]
# light: B1 light
# B7: 1H3-hIgG1-L6-hCD25(1-164)-L20-hIL-2 (D20I) (other)
# heavy: EVQLVESGGGLVQPGRSLKLSCAVSGFTFSDYAMAWVRQAPKKGLEWVATISYDGSRTYYRDSVKGRFTISRDNAKITLYLQMDSLRSEDTATYYCARHGSGYFDYWGQGVMVTVSS[not shown - human IgG1 constant region]SGGGGSELCDDDPPEIPHATFKAMAYKEGTMLNCECKRGFRRIKSGSLYMLCTGNSSHSSWDNQCQCTSSATRNTTKQVTPQPEEQKERKTTEMQSPMQPVDQASLPGHCREPPPWENEATERIYHFVVGQMVYYQCVQGYRALHRGPAESVCKMTHGKTRWTQPQLICTSGGGGSGGGGSGGGGSGGGS[not shown - about 150 residues]
# light: B1 light
# Biological target: T1, high-affinity hIL-2 receptor (IL-2Rαβγ) …
# Experiment: cell-based or functional assay
row,Fold change from hIL-2 (NK-92),Binder
1,17 fold,B1
2,23 fold,B2
3,25 fold,B3
4,23 fold,B4
5,22 fold,B5
6,23 fold,B6
7,21 fold,B7

# Biological target: T2, intermediate affinity hIL-2 receptor …
# Experiment: cell-based or functional assay
row,Fold change from hIL-2 (TF1 + IL-2Rβ),Binder
1,1 fold,B1
2,15 fold,B2
3,18 fold,B3
4,17 fold,B4
5,15 fold,B5
6,18 fold,B6
7,15 fold,B7
